This is an account of results in PubChem BioAssay (NCI).

Some test systems named below: 786-0 renal; CCRF-CEM leukemia; DU-145 prostate; HCC-2998 colon; HCT-116 colon; HOP-18 NSCLC; HOP-62 NSCLC; HS 578T breast; M14 melanoma; MDA-MB-231 breast; NCI-H226 lung; PC-3 prostate; RPMI-8226 leukemia; SF-539 CNS; SNB-75 CNS; SR leukemia; T-47D breast; TK-10 renal; SK-MEL-28 melanoma; SNB-19 CNS; KM12 colon; LOX IMVI melanoma; NCI-H23 lung; A498 renal; COLO 205 colon; HCT-15 colon; IGROV1 ovarian; K-562 leukemia; MALME-3M melanoma; MDA-MB-435; NCI-H522 lung; NCI/ADR-RES ovarian; OVCAR-5 ovarian; SF-268 CNS; SK-MEL-2 melanoma; SK-MEL-5 melanoma; SN12C renal; SW-620 colon; UACC-257 melanoma; ACHN renal; CAKI-1 renal; UACC-62 melanoma.

What all share (assay): NCI tumour cell line growth inhibition, 48 h

SMILES strings stand for the structures.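 Where inhibition never reached the appropriate level, the endpoint shown equals the highest concentration tested. Otherwise, values were interpolated linearly from a five-concentration, 48-hour dose response in 96-well plates. Abbreviation: GI50, concentration required for 50% inhibition of growth.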 The source holds more than one record for some entries. This list holds those alone. The source may hold further records. For part of these data: A record mostly stands for its own series of concentrations, which the source does not state; some values may only mark the edge of a range. For part of these data: Results that share an entry are repeats across runs, samples, wells, individuals or studies. A tag in brackets gives the origin of a value. Letters count within one entry.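 TGI denotes the concentration required for complete inhibition of growth.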

Turning to `CN(Cc1cnc2nc(N)nc(N)c2n1)c1ccc(C(=O)N[C@@H](CCC(=O)O)C(=O)O)cc1`, the GI50 is 488 nM [mean of 2 tests] and 25.1 nM [mean of 5 tests] in the test on 786-0 renal; 488 nM [1 test] and 54.8 nM [mean of 29 tests] and 21.5 nM [mean of 5 tests] in the test on DU-145 prostate; > 250 µM [1 test] and 93.7 nM [mean of 2 tests] in the test on HCC-2998 colon; > 250 µM [mean of 2 tests] and 151 µM [mean of 31 tests] and 8.08 µM [mean of 5 tests] with HS 578T breast; 488 nM [mean of 2 tests] and 29.3 nM [mean of 5 tests] with M14 melanoma; > 250 µM [mean of 2 tests] and 2.37 µM [mean of 5 tests] with MDA-MB-231 breast. For the same compound, the GI50 is > 250 µM [1 test] and 3.16 µM [mean of 5 tests] with NCI-H226 lung; > 250 µM [mean of 2 tests] and 65.5 nM [mean of 30 tests] and 2.62 nM [mean of 5 tests] with PC-3 prostate; 1.26 µM [1 test] and 121 nM [mean of 4 tests] in the test with RPMI-8226 leukemia; 3.8 nM [mean of 4 tests] and 43.5 nM [mean of 65 tests] in the test with SR leukemia; > 250 µM [1 test] and 1.43 µM [mean of 4 tests] with T-47D breast; > 250 µM [1 test] and 8.12 µM [mean of 4 tests] and 43 µM [mean of 76 tests] in the test on TK-10 renal. Moreover, the TGI with CCRF-CEM leukemia is 8.33 µM and 188 µM; in the test with HCT-116 colon, 2.5 nM, > 247 µM, > 250 µM; in the test with HOP-18 NSCLC, 0.00247 nM and 189 µM; in the test on HOP-62 NSCLC, 5.5 µM, 35.4 µM, > 250 µM; in the test on SF-539 CNS, 7.77 µM, 156 µM, > 250 µM; with SNB-75 CNS, 9.64 µM, 213 µM, > 250 µM.

Turning to `CC(C)c1cnn2c(NCc3ccccc3)cc(NC[C@H]3CCNC[C@@H]3O)nc12`, the TGI with SR leukemia is 657 nM [sample A, mean of 2 tests] and 17.9 µM [sample B, mean of 2 tests].

For the compound `CC(C)Nc1cc(-c2c[nH]c(C(=O)N[C@H](CO)c3cccc(Cl)c3)c2)c(Cl)cn1`, the TGI in the test with SK-MEL-28 melanoma is 9.01 µM [sample A, 1 test] and 612 nM [sample B, 1 test].

For the compound `C=C(CC(NC(=O)c1ccc(C(CC)Cc2cnc3nc(N)nc(N)c3n2)cc1)C(=O)O)C(=O)O` (centres undefined), in the test on HCC-2998 colon, the TGI is 617 nM and > 100 µM. In addition, the GI50 in the test with SNB-19 CNS is 675 nM and 28.8 nM.

As to `CCOC(=O)c1[nH]c(Br)c(-c2ccc(OC)c(OC)c2)c1Br`, the TGI in the test on KM12 colon is 951 nM and 12.7 µM; with LOX IMVI melanoma, 37.7 nM and 11.4 µM; in the test on NCI-H23 lung, 2.16 µM and 37 µM.

As for `COc1ccc(S(=O)(=O)N2CCN(C(=O)c3ccc(-c4ccccc4)cc3)CC2C(=O)NO)cc1` (centres undefined), the TGI is 5.78 µM and > 100 µM in the test on A498 renal; 9.57 µM and > 100 µM in the test on DU-145 prostate; 5.71 µM and > 100 µM with HCC-2998 colon; 9.04 µM and > 100 µM with HCT-116 colon; 5.67 µM and > 100 µM in the test on HOP-62 NSCLC; 4.51 µM and > 100 µM with HS 578T breast. In addition, the TGI with IGROV1 ovarian is 4.47 µM and > 100 µM; in the test with K-562 leukemia, 4.21 µM and > 100 µM; in the test with KM12 colon it was 8 µM and > 100 µM; in the test on LOX IMVI melanoma it was 353 nM and 4.11 µM; in the test with MALME-3M melanoma it was 7.45 µM and > 100 µM; with MDA-MB-231 breast it was 4.2 µM and 78.1 µM. Also, the TGI was 3.92 µM and > 100 µM with MDA-MB-435; 841 nM and > 100 µM in the test with NCI-H522 lung; 9.62 µM and > 100 µM in the test on NCI/ADR-RES ovarian; 4.96 µM and 80.6 µM in the test on PC-3 prostate; 3.39 µM and 69.7 µM in the test with SF-268 CNS; 9.16 µM and > 100 µM in the test with SK-MEL-2 melanoma. Besides, the TGI in the test with SK-MEL-5 melanoma was 6.1 µM and > 100 µM; with SN12C renal, 7.13 µM and > 100 µM; with SW-620 colon, 3.55 µM and > 100 µM. The GI50 in the test on COLO 205 colon is 2.93 µM and > 100 µM; in the test on HCC-2998 colon, 1.94 µM and > 100 µM; with HCT-15 colon, 7.1 µM and > 100 µM; in the test with HS 578T breast, 759 nM and > 100 µM; with LOX IMVI melanoma it was 166 nM and 1.71 µM; in the test with NCI-H23 lung it was 3.2 µM and > 100 µM. In addition, the GI50 with NCI-H522 lung is 341 nM and 42.3 µM; in the test on NCI/ADR-RES ovarian, 2.71 µM and > 100 µM; with OVCAR-5 ovarian, 8.96 µM and > 100 µM; with SK-MEL-2 melanoma, 3.51 µM and > 100 µM; in the test with SK-MEL-28 melanoma, 3.49 µM and > 100 µM; in the test on SNB-19 CNS, 9.25 µM and > 100 µM. Besides, the GI50 is 975 nM and > 100 µM in the test on SW-620 colon; 8.06 µM and > 100 µM in the test with T-47D breast; 6.81 µM and > 100 µM in the test on UACC-257 melanoma.

In the case of `O=C(NOC[C@H](O)CO)c1ccc(F)c(F)c1Nc1ccc(I)cc1F`, the GI50 is 3.79 µM [sample A, mean of 2 tests] and 240 nM [sample B, mean of 2 tests] in the test on ACHN renal; 904 nM [sample A, mean of 2 tests] and 42.6 nM [sample B, mean of 2 tests] with CAKI-1 renal; 278 nM [sample A, mean of 2 tests] and 25.5 nM [sample B, mean of 2 tests] in the test on IGROV1 ovarian; 1.78 µM [sample A, mean of 2 tests] and 16.8 nM [sample B, mean of 2 tests] in the test with K-562 leukemia; 4.57 µM [sample A, mean of 2 tests] and 379 nM [sample B, mean of 2 tests] with SN12C renal. Also, the TGI in the test with SK-MEL-2 melanoma is < 10 nM [sample A, mean of 2 tests] and 100 nM [sample B, mean of 2 tests]; in the test with SK-MEL-28 melanoma, > 100 µM [sample A, mean of 2 tests] and 35.5 nM [sample B, mean of 2 tests]; in the test on UACC-62 melanoma, 525 nM [sample A, mean of 2 tests] and 40.4 nM [sample B, mean of 2 tests].
